Holding throughout (assay): glycan array binding signal (z-score within array); higher = stronger binding
What all share (details): glycan notation: IUPAC condensed, linker removed

The target in assay [1] is GlcNAc(b1-3)Gal(b1-4)GlcNAc(b1-3)Gal(b1-4)GlcNAc(b1-2)Man(a1-3)[GlcNAc(b1-3)Gal(b1-4)GlcNAc(b1-3)Gal(b1-4)GlcNAc(b1-2)Man(a1-6)]Man(b1-4)GlcNAc(b1-4)GlcNAc. The essentials: (§1)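 Glycan array data were curated from 3228 arrays in the Consortium for Functional Glycomics database and kept only where the protein sequence was available. Glycan names were converted to IUPAC-condensed notation, and columns mapping to the same glycan were averaged. The binding signal is a within-array Z-score, averaged across arrays of the same protein sequence at different concentrations or buffers and across linkers. Negative Z-scores can be read as non-binding.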

The target in assay [2] is GlcNAc(b1-3)Gal(b1-4)GlcNAc(b1-3)Gal(b1-4)GlcNAc(b1-2)Man(a1-3)[GlcNAc(b1-3)Gal(b1-4)GlcNAc(b1-3)Gal(b1-4)GlcNAc(b1-2)Man(a1-6)]Man(b1-4)GlcNAc(b1-4)[Fuc(a1-6)]GlcNAc. The essentials:
as §1

Assay [3] concerns the target GlcNAc(b1-3)Gal(b1-4)GlcNAc(b1-3)Gal(b1-4)GlcNAc(b1-2)[GlcNAc(b1-3)Gal(b1-4)GlcNAc(b1-3)Gal(b1-4)GlcNAc(b1-6)]Man(a1-6)[GlcNAc(b1-3)Gal(b1-4)GlcNAc(b1-3)Gal(b1-4)GlcNAc(b1-2)Man(a1-3)]Man(b1-4)GlcNAc(b1-4)[Fuc(a1-6)]GlcNAc. The method, boiled down: as §1
Assay [4] deals with GlcNAc(b1-3)Gal(b1-4)GlcNAc(b1-3)Gal(b1-4)GlcNAc(b1-3)Gal(b1-4)GlcNAc(b1-2)Man(a1-3)[GlcNAc(b1-3)Gal(b1-4)GlcNAc(b1-3)Gal(b1-4)GlcNAc(b1-3)Gal(b1-4)GlcNAc(b1-2)Man(a1-6)]Man(b1-4)GlcNAc(b1-4)GlcNAc. The essentials: as §1
Assay [5] concerns the target GlcNAc(b1-3)Gal(b1-4)GlcNAc(b1-3)Gal(b1-4)GlcNAc(b1-3)Gal(b1-4)GlcNAc(b1-2)Man(a1-3)[GlcNAc(b1-3)Gal(b1-4)GlcNAc(b1-3)Gal(b1-4)GlcNAc(b1-3)Gal(b1-4)GlcNAc(b1-2)Man(a1-6)]Man(b1-4)GlcNAc(b1-4)[Fuc(a1-6)]GlcNAc. The method, boiled down:
as §1

Assay [6] addresses GlcNAc(b1-3)Gal(b1-4)GlcNAc(b1-3)Gal(b1-4)GlcNAc(b1-3)Gal(b1-4)GlcNAc(b1-2)[GlcNAc(b1-3)Gal(b1-4)GlcNAc(b1-3)Gal(b1-4)GlcNAc(b1-3)Gal(b1-4)GlcNAc(b1-6)]Man(a1-6)[GlcNAc(b1-3)Gal(b1-4)GlcNAc(b1-3)Gal(b1-4)GlcNAc(b1-3)Gal(b1-4)GlcNAc(b1-2)Man(a1-3)]Man(b1-4)GlcNAc(b1-4)[Fuc(a1-6)]GlcNAc. The method, boiled down:
as §1

Assay [7] has as its target GlcNAc(b1-3)Gal(b1-4)GlcNAc(b1-3)Gal(b1-4)GlcNAc(b1-3)Gal(b1-4)GlcNAc(b1-3)Gal(b1-4)GlcNAc(b1-2)Man(a1-3)[GlcNAc(b1-3)Gal(b1-4)GlcNAc(b1-3)Gal(b1-4)GlcNAc(b1-3)Gal(b1-4)GlcNAc(b1-3)Gal(b1-4)GlcNAc(b1-2)Man(a1-6)]Man(b1-4)GlcNAc(b1-4)GlcNAc. The essentials: as §1
For assay [8], the target named is GlcNAc(b1-3)Gal(b1-4)GlcNAc(b1-3)Gal(b1-4)GlcNAc(b1-3)Gal(b1-4)GlcNAc(b1-3)Gal(b1-4)GlcNAc(b1-2)Man(a1-3)[GlcNAc(b1-3)Gal(b1-4)GlcNAc(b1-3)Gal(b1-4)GlcNAc(b1-3)Gal(b1-4)GlcNAc(b1-3)Gal(b1-4)GlcNAc(b1-2)Man(a1-6)]Man(b1-4)GlcNAc(b1-4)[Fuc(a1-6)]GlcNAc. The method, boiled down:
as §1

The target in assay [9] is GlcNAc(b1-3)Gal(b1-4)GlcNAc(b1-3)Gal(b1-4)GlcNAc(b1-3)Gal(b1-4)GlcNAc(b1-3)Gal(b1-4)GlcNAc(b1-2)[GlcNAc(b1-3)Gal(b1-4)GlcNAc(b1-3)Gal(b1-4)GlcNAc(b1-3)Gal(b1-4)GlcNAc(b1-3)Gal(b1-4)GlcNAc(b1-6)]Man(a1-6)[GlcNAc(b1-3)Gal(b1-4)GlcNAc(b1-3)Gal(b1-4)GlcNAc(b1-3)Gal(b1-4)GlcNAc(b1-3)Gal(b1-4)GlcNAc(b1-2)Man(a1-3)]Man(b1-4)GlcNAc(b1-4)[Fuc(a1-6)]GlcNAc. The essentials:
as §1

The target of assay [10] is GlcNAc(b1-3)Gal(b1-4)GlcNAc(b1-3)Gal(b1-4)GlcNAc(b1-3)GalNAc. The essentials:
as §1

Assay [11] addresses GlcNAc(b1-3)Gal(b1-4)GlcNAc(b1-3)GalNAc. The essentials:
as §1

Assay [12] deals with GlcNAc(b1-3)Gal(b1-4)GlcNAc(b1-3)[GlcNAc(b1-3)Gal(b1-4)GlcNAc(b1-3)]GalNAc. The essentials:
as §1

For assay [13], the target named is GlcNAc(b1-3)Gal(b1-4)GlcNAc(b1-6)[Gal(b1-3)]GalNAc. The essentials:
as §1

In assay [14] the target is GlcNAc(b1-3)Gal(b1-4)GlcNAc(b1-6)[GlcNAc(b1-3)Gal(b1-3)]GalNAc. The essentials:
as §1

In assay [15] the target is GlcNAc(b1-3)Gal(b1-4)GlcNAc(b1-6)[GlcNAc(b1-3)]Gal(b1-4)GlcNAc. The method, boiled down: as §1
In another assay the target is GlcNAc(b1-3)GalNAc. The method, boiled down: as §1
A further assay addresses GlcNAc(b1-3)Man. The method, boiled down: as §1
Assay [16] addresses GlcNAc(b1-3)[GlcNAc(b1-4)][GlcNAc(b1-6)]GlcNAc. The method, boiled down:
as §1

Assay [17] has as its target GlcNAc(b1-3)[GlcNAc(b1-6)]Gal(b1-4)GlcNAc. The method, boiled down: as §1
Assay [18] addresses GlcNAc(b1-3)[GlcNAc(b1-6)]GalNAc. The essentials:
as §1

Assay [19] deals with GlcNAc(b1-4)Gal(b1-4)GlcNAc. The method, boiled down:
as §1

For the next assay, the target named is GlcNAc(b1-4)GlcNAc. The method, boiled down: as §1
Assay [20] concerns the target GlcNAc(b1-4)GlcNAc(b1-4)GlcNAc. The method, boiled down:
as §1

This is one part of the list.

B1: AT5G01260(PC)(40) (Arabidopsis thaliana), Q9LFB0 (protein)
chain: MIGIGRTLTSSSPSKIILEDLPPGIYRYGTEIFTSVPRKTFHHIKFLRLDSAQSSRILKPVPLRSSSIKDSQVNVEDEEIEASNKTVRVRFQLRKECVFGEHFFIVGDDPVFGGLWDPETALPLNWSDGNVWTVDLDLPVGRLVEFKLLLKAQTGEILWQPGPNRALETWETNKTIRICEDWDNADLQMMIEEDFVPYTNISSIGSEDEDEVLGSVQQNSSVVAVENAGYVSDESAQNSSFSIQSEKTMEPSNGALTAREVIKEAMFTEEESPVLVPGLIPLSDLDNEQVEVINEGKAETFPEVDKKQEPKAERNKKAKVKAISLFEKSEQEAVKSVEQRQYNAVEEEQQRLETEPLGTPDVLFENDIQWGRRTLYKLLSNFRLF
In the case of B1, the “glycan array binding signal (z-score)” value is 0.666 in assay [1]; 0.497 in assay [2]; 0.144 in [3]; 0.239 in [4]; -0.141 in assay [5]; -0.177 in assay [6]. Besides, the “glycan array binding signal (z-score)” value in assay [7] is -0.508; in assay [8], -0.228; in assay [9], 0.133; in assay [10], -0.021; in assay [11], 0.047; in assay [12] it was 0.401. Also, the “glycan array binding signal (z-score)” value is 0.195 in assay [13]; -0.71 in assay [14]; -1.02 in assay [15]; -0.005 in the assay with GlcNAc(b1-3)GalNAc; -0.086 in the assay with GlcNAc(b1-3)Man; 0.016 in assay [16]. Besides, the “glycan array binding signal (z-score)” value in [17] was -0.382; in assay [18], 0.081; in [19] it was -0.569; in the assay with GlcNAc(b1-4)GlcNAc, -0.477; in assay [20] it was 0.078.

(Values after the supplement of paper PMC8728848.)
